# Laboratory results reported in the supplement of paper PMC4723716.
# Values joined by “and” are separate entries in the source; they are usually repeats but may differ in a detail not shown here. Identical values can stand only once. ± gives the uncertainty stated by the source. Whole data set: some 9,900 compounds, median “viability index relative to DMSO control” near 1, cut for the lowest 2% near 0.85. The list shows a part of the results.
# Tested on: Plasmodium falciparum NF54 stage V gametocytes
# Test: viability index relative to DMSO control (fraction); higher = less gametocyte killing
# Conditions: 2.5 µM, incubation time: 72 h
# Outline: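 P. falciparum NF54 stage V gametocytes in serum-free screening medium (0.75% gametocytemia, 1.25% hematocrit, 10 µl) were incubated with compound at 2.5 µM in 1,536-well plates for 72 hr at 37°C under low oxygen. Then 3 µl of 2.5 µM MitoTracker Red CMXRos plus 0.13% saponin was added for one to two hours. One field per well was imaged, 20–70 µm2 red particles were counted, and the viability index was the count divided by the plate mean of DMSO wells.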
# [1] = library set: Broad Institute DOS
SMILES,viability index [1],viability index (library set: Broad Institute Blood Stage)
C[C@@H]1CN([C@@H](C)CO)C(=O)c2cccc(NC(=O)Nc3ccc4c(c3)OCO4)c2O[C@H]1CN(C)S(C)(=O)=O,0.946 ± 0.15,–
COCC(=O)N1C[C@@]2(C1)CN(Cc1nccs1)[C@H](CO)c1c2c2ccc(OC)cc2n1C,1.03 ± 0.097,–
O=C1CNC[C@H]2[C@H](c3ccc(C4=CCCC4)cc3)[C@@H](CO)N12,0.995 ± 0.044,–
C[C@@H]1CN([C@@H](C)CO)C(=O)c2cccc(NC(=O)c3ccc(-c4nccs4)cc3)c2O[C@@H]1CN(C)C(=O)Nc1cccc2ccccc12,–,0.784 ± 0.023
Cn1cnc(S(=O)(=O)N2C[C@@H](O)COC[C@H]3O[C@H](CC(=O)NCc4cccc(F)c4)CC[C@@H]32)c1,1.02 ± 0.084,–
O=C(C[C@@H]1CC[C@H](NS(=O)(=O)c2ccc(F)cc2)[C@@H](CO)O1)N1CCN(c2ccccc2)CC1,1.17 ± 0.12,–
Cc1noc(C)c1NC(=O)N(C)C[C@H]1OCc2cnnn2CCCC(=O)N([C@@H](C)CO)C[C@H]1C,0.968 ± 0.061,–
C[C@H]1CN([C@@H](C)CO)C(=O)c2cc(-c3cccc(C(=O)N(C)C)c3)cnc2O[C@@H]1CN(C)C(=O)Cc1ccccn1,1.09 ± 0.015,–
CO[C@@H]1CN(C)C(=O)c2cc(NC(C)=O)ccc2OC[C@H](C)N(C(=O)Cc2ccccn2)C[C@@H]1C,1.081 ± 0.0086,–
CN(C)C(=O)c1ccc(-c2ccc([C@H]3[C@@H](C#N)N[C@@H]3CO)cc2)cc1,1.01 ± 0.22,–
COCC(=O)N1C[C@]2(CN(Cc3ccc(Cl)cc3)C2)c2c([nH]c3cc(OC)ccc23)[C@H]1CO,1.01 ± 0.053,–
Cc1noc(C)c1NC(=O)Nc1ccc2c(c1)C(=O)N([C@@H](C)CO)C[C@H](C)[C@@H](CN(C)Cc1ccc3c(c1)OCO3)OCCCC[C@H](C)O2,1.016 ± 0.0049,–
O=C(N[C@H]1CC[C@@H](CCn2cc(-c3ccccc3F)nn2)O[C@H]1CO)c1ccc2c(c1)OCO2,1.1 ± 0.06,–
Cc1noc(C)c1S(=O)(=O)Nc1ccc2c(c1)C(=O)N([C@@H](C)CO)C[C@@H](C)[C@@H](CN(C)C(=O)NC1CCCCC1)O2,1.097 ± 0.0047,–
C/C=C/c1ccc([C@H]2[C@@H](CO)N3C(=O)CN(S(=O)(=O)c4ccccc4)C[C@@H]23)cc1,1.03 ± 0.031,–
CCC(=O)N1[C@H](CO)[C@@H]2c3ccccc3N(C(=O)c3cnccn3)C[C@@H]21,0.908 ± 0.3,–
Cc1cccc(S(=O)(=O)N2C[C@H]3[C@@H](c4ccccc42)[C@H](CO)N3CC2CCCC2)c1,0.994 ± 0.055,–
Cc1ccc(S(=O)(=O)NCC[C@H]2CC[C@H](NC(=O)c3cccnc3)[C@@H](CO)O2)cc1,1.1 ± 0.066,–
COc1ccc(-c2cn(CC[C@H]3CC[C@H](NC(=O)c4cnccn4)[C@H](CO)O3)nn2)cc1,1.13 ± 0.053,–
O=C(CN1CCOCC1)N1CCCCN2[C@@H](CO)[C@@H](c3ccc(Br)cc3)[C@@H]2C1,0.986 ± 0.061,–
O=C(C1CCC1)N1CC(=O)N2[C@@H](CO)[C@H](c3ccc(Br)cc3)[C@@H]2C1,0.978 ± 0.019,–
O=C(CN1CCOCC1)N1C[C@@H]2N[C@H](C1)[C@@H]2c1ccc(-c2ccncc2)cc1,0.985 ± 0.094,–
C[C@@H]1CCCCO[C@@H](CN(C)S(=O)(=O)c2ccccc2)[C@H](C)CN([C@@H](C)CO)C(=O)c2cc(NC(=O)Nc3ccc4c(c3)OCO4)ccc2O1,1.04 ± 0.043,–
C[C@@H]1CCCCO[C@@H](CN(C)CC2CC2)[C@H](C)CN([C@H](C)CO)C(=O)c2cc(NC(=O)c3ccccc3)ccc2O1,1.05 ± 0.024,–

SMILES,viability index [1],viability index (library set: Broad Institute Blood Stage)
CO[C@H]1CN(C)C(=O)c2ccc(NS(=O)(=O)c3c(C)noc3C)cc2OC[C@H](C)NC[C@H]1C,1.052 ± 0.0056,–
CC(C)NC[C@@H]1[C@H](c2ccc(C3=CCCCC3)cc2)[C@H](CO)N1S(C)(=O)=O,0.996 ± 0.022,–
O=C(C1CCOCC1)N1CC2(C1)[C@H](c1ccccc1)[C@@H](CO)N2C(=O)CC1CC1,1.11 ± 0.077,–
O=C(C1CCOCC1)N1CC(=O)N2[C@H](CO)[C@@H](c3ccc(-c4cccnc4)cc3)[C@H]2C1,1.05 ± 0.16,–
N#C[C@H]1N[C@@H](CO)[C@H]1c1ccc(C#Cc2ccccc2F)cc1,1.05 ± 0.012,–
O=C(CC1CC1)N1CC2(C1)[C@H](c1ccccc1)[C@H](CO)N2C(=O)c1ccccn1,1.11 ± 0.076,–
N#C[C@H]1[C@@H](c2ccccc2-c2ccccc2F)[C@@H](CO)N1C(=O)C1CCC1,1.15 ± 0.043,–
C[C@H](CO)N1C[C@H](C)[C@@H](CN(C)C(=O)c2ccccc2)Oc2cc(-c3cccc(C#N)c3)ccc2S1(=O)=O,1.003 ± 0.0097,–
COc1ccc(CN(C)C[C@@H]2Oc3ccc(NC(=O)Nc4ccc5c(c4)OCO5)cc3CC(=O)N([C@H](C)CO)C[C@@H]2C)cc1,0.983 ± 0.077,–
O=C(CN1CCOCC1)N1C[C@@H]2N[C@H](C1)[C@H]2c1ccc(/C=C/c2ccccc2)cc1,1.1 ± 0.036,–
CO[C@@H]1CN(C)C(=O)c2cc(NC(=O)NC(C)C)ccc2OC[C@@H](C)N(C(=O)CN(C)C)C[C@H]1C,1.02 ± 0.021,–
COc1ccc(NC(=O)N(C)C[C@@H]2Oc3ccc(NC(=O)Nc4cccc5ccccc45)cc3CC(=O)N([C@@H](C)CO)C[C@H]2C)cc1,1.03 ± 0.033,–
O=C(C1CCOCC1)N1CC(=O)N2[C@H](C1)[C@@H](c1ccc(-c3cccnc3)cc1)[C@@H]2CO,0.947 ± 0.014,–
COc1ccc(S(=O)(=O)N2CC[C@H]3[C@H](CO)Nc4ccc(Br)cc4[C@H]32)cc1,1.099 ± 0.0089,–
C[C@H](O)C#Cc1ccc([C@@H]2[C@@H](CO)N3CCCCN(CC4CC4)C[C@@H]23)cc1,1.01 ± 0.098,–
CO[C@H]1CN(C)C(=O)c2ccc(NC(=O)Nc3ccccc3)cc2OC[C@H](C)N(C(=O)CC2CC2)C[C@H]1C,0.977 ± 0.067,–
CCCC(=O)Nc1ccc2c(c1)C(=O)N(C)[C@@H]1CC[C@H](CC(=O)NCc3cccc(F)c3)O[C@@H]1CO2,0.9974 ± 0.0047,–
O=C(c1ccc(F)cc1)N1CC(=O)N2[C@H](C1)[C@H](c1ccc(C#CCC3CCCC3)cc1)[C@@H]2CO,1.07 ± 0.016,–
O=C(c1cccc(F)c1)N1CC(=O)N2[C@H](CO)[C@H](c3ccc(/C=C/c4ccccc4)cc3)[C@@H]2C1,1.05 ± 0.066,–
O=C(c1ccccc1F)N1CC2(C1)[C@@H](c1ccccc1)[C@@H](CO)N2CC1CCOCC1,1.13 ± 0.089,–
Fc1ccc(-c2ccc([C@@H]3[C@@H]4CN(Cc5ccccc5)C[C@H]3N4)cc2)cc1,0.956 ± 0.038,–
COc1ccc2c3c([nH]c2c1)[C@H](CO)N(C[C@]31CCN(CC1)C(=O)NC(C)C)C(=O)c1ccc(F)cc1,1.05 ± 0.021,–
O=C(C[C@H]1CC[C@H]2[C@@H](COC[C@@H](O)CN2C(=O)Nc2cccc(F)c2)O1)NCCCN1CCOCC1,1.06 ± 0.0087,–
CC(C)(C)[S@@](=O)N1Cc2cc(C(=O)N3CCOCC3)nc(-c3cccc(-c4ccc(C#N)cc4)c3)c2[C@H]1CCO,1.07 ± 0.013,–

SMILES,viability index [1],viability index (library set: Broad Institute Blood Stage)
O=C(CC1CC1)N1CC2(C1)[C@@H](c1ccccc1)[C@@H](CO)N2Cc1ccccn1,1.03 ± 0.062,–
OC[C@@H]1[C@H](c2ccc(-c3ccc(F)cc3)cc2)[C@@H](CNC2CCCC2)N1CCC(F)(F)F,0.557 ± 0.096,–
CO[C@H]1CN(C)C(=O)c2cc(NC(=O)c3ccc4c(c3)OCO4)ccc2OC[C@@H](C)N(CCC(F)(F)F)C[C@@H]1C,1.12 ± 0.14,–
O=C(C1CCC1)N1CC(=O)N2[C@H](CO)[C@@H](c3ccc(Br)cc3)[C@@H]2C1,1.07 ± 0.026,–
CN(C)C(=O)c1cccc(-c2cccc(-c3nc(C(=O)N4CCCCC4)cc4c3[C@H](CCO)N([S@@](=O)C(C)(C)C)C4)c2)c1,1.04 ± 0.0013,–
CN1C(=O)c2cc(NC(=O)c3cccc(F)c3)ccc2OC[C@H]2O[C@@H](CC(=O)NCC3CCCCC3)CC[C@H]21,1.09 and 1.14,–
COc1ccccc1-c1ccc2n(c1=O)C[C@@H]1[C@@H](CO)[C@H](C(=O)N3CCOCC3)[C@H]2N1CC1CC1,1.04 ± 0.016,–
C[C@@H]1CCCCO[C@H](CN(C)C(=O)c2ccncc2)[C@@H](C)CN([C@H](C)CO)C(=O)c2cc(NS(=O)(=O)c3cccs3)ccc2O1,1.13 ± 0.017,–
O=S(=O)(c1ccccc1)N1CCCCN2[C@H](C1)[C@@H](c1ccc(C#CC3CCCC3)cc1)[C@@H]2CO,0.907 ± 0.07,–
C[C@@H]1CN([C@H](C)CO)S(=O)(=O)c2ccc(-c3cncnc3)cc2O[C@H]1CN(C)C(=O)NC1CCCC1,1.01 ± 0.038,–
COCC(=O)N1CC(=O)N2[C@H](C1)[C@@H](c1ccc(C#CC3CC3)cc1)[C@@H]2CO,0.96 ± 0.041,–
CS(=O)(=O)N1[C@H](C#N)[C@H](c2ccccc2-c2ccccc2F)[C@@H]1CO,1.07 ± 0.11,–
CO[C@@H]1CC[C@H]2CCOc3c(C#N)cccc3C(=O)N(C)C[C@H](c3ccccc3)CC(=O)N(C)C[C@H]1O2,1.13 ± 0.066,–
COCC(=O)Nc1ccc2c(c1)C(=O)N(C)[C@@H]1CC[C@H](CC(=O)NCCCN(C)C)O[C@H]1CO2,0.948 ± 0.14,–
Cc1cc(C(=O)Nc2ccc3c(c2)C(=O)N(C)[C@@H]2CC[C@@H](CC(=O)O)O[C@@H]2CO3)no1,1.09 ± 0.069,–
CC(C)c1cccc(NC(=O)C[C@H]2CC[C@H]3[C@@H](COc4ccc(NC(=O)c5cnccn5)cc4C(=O)N3C)O2)c1,1.07 ± 0.049,–
C[C@@H](NC(=O)C[C@H]1CC[C@@H]2[C@H](COC[C@@H](O)CN2C(=O)Nc2cccc(Cl)c2)O1)c1ccccc1,1.19 ± 0.041,–
COc1ccc2c3c([nH]c2c1)[C@@H](CO)N(Cc1ccccc1F)C[C@]31CN(CC2CC2)C1,1.04 ± 0.058,–
O=C(C[C@H]1C[C@@H]2c3cc(NC(=O)NC4CCCC4)ccc3O[C@@H]2[C@@H](CO)O1)NCc1ccccc1F,0.974 ± 0.034,–
CC(=O)N1[C@H](CO)[C@H](c2ccc(C3=CCCC3)cc2)C12CN(C(=O)NC(C)C)C2,1.1 ± 0.012,–
COc1ccc2c3c([C@@H](CO)N(Cc4cccnc4)C[C@]33CN(C3)C(=O)c3cccnc3)n(C)c2c1,1.01 ± 0.017,–
CO[C@H]1CN(C)C(=O)c2ccc(NC(=O)c3ccccc3F)cc2OC[C@H](C)N(C)C[C@@H]1C,1.12 ± 0.085,–
C/C=C/c1ccc([C@H]2[C@@H](CO)N(C(C)=O)[C@@H]2CNC(=O)c2ccccc2)cc1,1.075 ± 0.0042,–
